Results as given in PMC4336329 (PLoS ONE, 2015).
About 14,000 (4.5%) of roughly 310,000 compounds showed an effect of 50% or more. The effect is printed as a negative number. The list shows a part of the results.

Each molecule was assayed against human ether-à-go-go-related gene (hERG) potassium channel (human, UniProt Q12809) (assay: primary screen, population patch clamp on CHO cells stably expressing hERG).
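Note: peak tail current of the secondary pulse compared with the same well before compound.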

Chain of human ether-à-go-go-related gene (hERG) potassium channel (Q12809 whole entry, looked up): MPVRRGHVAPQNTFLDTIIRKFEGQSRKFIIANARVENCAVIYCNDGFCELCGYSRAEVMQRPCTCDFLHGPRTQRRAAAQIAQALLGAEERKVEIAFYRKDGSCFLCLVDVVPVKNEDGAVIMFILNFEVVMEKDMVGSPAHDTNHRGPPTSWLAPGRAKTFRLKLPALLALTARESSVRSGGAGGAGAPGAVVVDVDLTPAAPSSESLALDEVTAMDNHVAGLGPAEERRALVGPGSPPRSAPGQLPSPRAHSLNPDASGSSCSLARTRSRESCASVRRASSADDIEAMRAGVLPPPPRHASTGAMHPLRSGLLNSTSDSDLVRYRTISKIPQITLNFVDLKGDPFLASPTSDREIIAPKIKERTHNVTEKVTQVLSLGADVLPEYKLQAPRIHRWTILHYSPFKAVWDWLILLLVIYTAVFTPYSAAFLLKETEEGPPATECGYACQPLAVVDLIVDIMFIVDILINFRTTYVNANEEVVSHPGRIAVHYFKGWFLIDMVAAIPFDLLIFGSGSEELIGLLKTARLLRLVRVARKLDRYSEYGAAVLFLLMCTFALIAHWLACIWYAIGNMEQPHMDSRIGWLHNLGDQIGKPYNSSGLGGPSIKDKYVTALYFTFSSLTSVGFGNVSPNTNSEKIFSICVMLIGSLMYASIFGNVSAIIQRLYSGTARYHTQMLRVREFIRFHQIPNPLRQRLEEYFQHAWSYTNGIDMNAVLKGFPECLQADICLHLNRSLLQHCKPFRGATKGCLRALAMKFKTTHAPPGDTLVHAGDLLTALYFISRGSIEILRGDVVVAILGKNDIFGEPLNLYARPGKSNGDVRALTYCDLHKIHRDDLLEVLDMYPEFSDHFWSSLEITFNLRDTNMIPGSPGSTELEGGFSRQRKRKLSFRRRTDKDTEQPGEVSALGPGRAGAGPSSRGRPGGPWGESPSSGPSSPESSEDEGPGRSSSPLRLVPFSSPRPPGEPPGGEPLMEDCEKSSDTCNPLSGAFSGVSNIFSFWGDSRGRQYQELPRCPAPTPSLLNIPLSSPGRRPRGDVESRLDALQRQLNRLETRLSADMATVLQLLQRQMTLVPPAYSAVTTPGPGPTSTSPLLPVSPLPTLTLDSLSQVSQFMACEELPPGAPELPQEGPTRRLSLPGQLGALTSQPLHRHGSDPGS

Row | Structure (SMILES) | hERG current change (%, negative = inhibition) at 10uM
1 | Cc1cc(C)c(S(=O)(=O)c2ccc(C(C)(C)C)cc2)c(Cl)n1 | 16.7%
2 | C=CCn1c(N)cc(=O)nc1SCC(=O)NC(C)c1ccccc1 (stereo not drawn) | 13.8%
3 | CCOc1ccc(NC(=O)C2CCCN(S(=O)(=O)c3ccc(-n4cnnn4)cc3)C2)cc1 (stereo not drawn) | 10.8%
4 | Cc1noc(C)c1C(=O)Nc1nc(-c2ccc(F)c(F)c2)cs1 | 0.641%
5 | CNC(=O)C(=O)NCC1CCCN1S(=O)(=O)c1cccs1 (stereo not drawn) | 12.4%
6 | Cc1c(C#N)c2ccccc2n1CC(=O)NCc1ccccc1 | -3.03%
7 | O=C(O)CSc1nnc(-c2ccncc2)n1-c1ccc(Cl)cc1 | -13%
8 | O=C(CSc1ccc(F)cc1)Nc1ccccc1Br | -6%
9 | O=c1[nH]c(=S)n(-c2ccccc2F)c(O)c1C=NCc1ccco1 | -0.509%
10 | Cc1cccn2c(=O)c(/C=N/O)c(N3CCOCC3)nc12 | 12.1%
11 | O=C(C1CCCN(Cc2ccc(Br)cc2)C1)N1CCCCC1.O=C(O)C(=O)O (stereo not drawn) | -37.2%
12 | O=C(O)CCCCCNc1ccc2nsnc2c1[N+](=O)[O-] | 6.8%
13 | COc1ccc(CCNC(=O)c2ccc(CS(=O)Cc3ccc(C)cc3)o2)cc1OC (stereo not drawn) | 8.06%
14 | Cc1nc2sccn2c(=O)c1S(=O)(=O)Nc1cccc(Cl)c1C | -22.8%
15 | CC(=O)c1ccc(N(CC(=O)NC2CCS(=O)(=O)C2)S(=O)(=O)c2ccc(Cl)cc2)cc1 (stereo not drawn) | 5.96%
16 | COC/C=C/C1=CC2=CC(=O)C(C)(O)C(=O)C2=CO1 (stereo not drawn) | 19.3%
17 | COc1cccc(-n2c(CCn3nc(C)c([N+](=O)[O-])c3C)n[nH]c2=S)c1 | 8.2%
18 | CC1(C)CC(=O)C2=C(C1)N(c1ccc(F)cc1)C(=O)NC2(C(F)(F)F)C(F)(F)F | -13%
19 | COc1ccccc1CC(=O)Nc1ccc(S(=O)(=O)N2CCCCC2)cc1 | 5.54%
20 | COc1ccccc1N(CC(O)CN1CCC(C)CC1)S(=O)(=O)c1ccccc1 (stereo not drawn) | -19.2%
21 | O=c1c2oc3nc4c(cc3c2ncn1CCCc1ccccc1)CCCC4 | -21.5%

Row | Structure (SMILES) | hERG current change (%, negative = inhibition) at 10uM
22 | CC(=O)Nc1ccc(CN2CCN(Cc3ccc(C)cc3)C(CCO)C2)cc1 (stereo not drawn) | -34.5%
23 | COc1ccc(NC(=O)N(Cc2cc3cc(OC)c(OC)cc3[nH]c2=O)CC2CCCO2)cc1 (stereo not drawn) | -0.0111%
24 | Cc1nnsc1C(=O)NC1CCCCC1 | 6.7%
25 | C=CCNC(=O)/C(C#N)=C/c1c(N2CCCCCC2)nc2ccccn2c1=O | -59.6%
26 | CS(=O)(=O)c1ccc(CNC(=O)[C@]2(C(F)(F)F)C[C@H](CCc3ccccc3)CCCO2)cc1 | 10.7%
27 | COc1ccc(C(=O)/C=C/c2cccnc2)c(OC)c1 | 10.4%
28 | COc1ccc(NC(=O)c2cccc(S(=O)(=O)N3CCOCC3)c2)cn1 | 1.3%
29 | Cc1ccc(NC2=NCC(=O)N2CCc2ccccc2)cc1C | 3.94%
30 | Cc1c(N(C(=O)c2ccccn2)C2(C(=O)NC3CCCC3)CCCCC2)c(=O)n(-c2ccccc2)n1C | -11.3%
31 | O=C(COC(=O)c1ccccc1C(=O)N1CCN(c2ccccc2)CC1)Nc1ccc(F)cc1 | -21.6%
32 | O=C(Oc1ccc2ccc(=O)oc2c1)c1ccc([N+](=O)[O-])cc1 | 6.74%
33 | Cc1c(-n2cccc2C=O)cccc1[N+](=O)[O-] | -17.9%
34 | COc1ccc(Br)cc1CNC(=O)CCC(=O)N1CCSc2ccccc21 | -19.8%
35 | CCOC(=O)/C=c1\s/c(=C\c2ccc(-c3ccccc3)cc2)c(=O)n1CC(=O)NCc1ccc2c(c1)OCO2 | -11.9%
36 | CCNC(=S)N(CCc1ccccc1C)Cc1cc2cc(OC)c(OC)cc2[nH]c1=O | -22.3%
37 | Cc1ccn2c(NCc3ccccc3)c(-c3cccs3)nc2c1 | 12.5%
38 | Cc1ccc(N2CC(C(=O)OCC(=O)c3c(N)n(CC(C)C)c(=O)n(C)c3=O)CC2=O)cc1 (stereo not drawn) | -3.07%
39 | OCC1OC(Oc2c[nH]c3ccccc23)C(O)C(O)C1O (stereo not drawn) | 51%
40 | CCOC(=O)CNc1nc(Cl)nc(N2CCCCC2)n1 | 11.5%
41 | CCCn1ccc2c(OCC(=O)Nc3ccc(NC(C)=O)cc3)cccc2c1=O | -5.81%
42 | COc1cccc(CNS(=O)(=O)c2ccc3c(c2)CC(C)N3C(=O)C2CCC2)c1 (stereo not drawn) | -3.49%

Row | Structure (SMILES) | hERG current change (%, negative = inhibition) at 10uM
43 | CC1CCN(S(=O)(=O)c2ccc3c(c2)N(CC(=O)NCCCN2CCCCC2)C(=O)CS3)CC1 | -10.6%
44 | Cc1ccc2[nH]c3c(c2c1)CN(C(=O)CN1c2ccc(F)cc2CCC1C)CC3 (stereo not drawn) | 12.5%
45 | CCNC(=S)N/N=C/c1ccc(OCC(=O)Nc2ccc(C)cc2)cc1 | 4.81%
46 | Cc1c(C(=O)Nc2nccs2)sc2nc(-c3cccs3)cc(C(F)(F)F)c12 | 18.8%
47 | CC(C)c1nnc(NC(=O)CSc2nnc(NC(=O)c3c(F)cccc3F)s2)s1 | 0.313%
48 | O=c1c(Cl)c(N2CCN(S(=O)(=O)c3ccccc3)CC2)cnn1-c1ccccc1 | 8.48%
49 | Cc1ccc2cc(CCNC(=O)CC(C)(C)C)c(=O)[nH]c2c1C | 18.8%
50 | COc1cccc(C(=O)O/N=C(\N)c2ccccn2)c1OC | 23.2%
51 | O=C(COc1ccc(Cl)cc1)NCC(=O)N/N=C/c1cccs1 | 12%
52 | CC1CCCC(NC(=O)COC(=O)/C=C/c2ccco2)C1C (stereo not drawn) | 9.6%
53 | CCOC(=O)N1CCC(NC(=O)c2cc(C(=O)Nc3cccc(C(F)(F)F)c3)ccc2CO)CC1 | -4.19%
54 | Cc1ccc(OCCCC(=O)ON=C(N)c2ccccc2C)cc1 | 8.18%
55 | O=C(CCCn1c(=O)oc2ccccc21)N1CCN(c2ccc(F)cc2)CC1 | -63.9%
56 | Cc1cccc(-c2nc(NCCCN3CCOCC3)c3ccccc3n2)c1 | -47.1%
57 | Oc1ccccc1CNn1cnnc1 | 12.6%
58 | NC(=O)c1nnn(-c2ccc([N+](=O)[O-])cc2)c1-c1ccccc1 | -20.2%
59 | COc1ccc(C(=O)Nc2cc(C(F)(F)F)ccc2-n2cncn2)cc1 | -17.4%
60 | Cc1ccc(-n2c(C)cc3c2CCCC3=O)cc1 | 4.5%
61 | CCC(=O)NC(Nc1nc2ccc(C)cc2s1)(C(=O)OC)C(F)(F)F (stereo not drawn) | 3.55%
62 | CCCSc1ccccc1C(=O)N1CCN(C(=O)c2ccco2)CC1 | 10.8%
63 | COCCCN1C(=O)C(=O)/C(=C(/O)c2ccc(S(=O)(=O)N3CCCCC3)cc2)C1c1ccc(OC)cc1 (stereo not drawn) | 18.1%

Row | Structure (SMILES) | hERG current change (%, negative = inhibition) at 10uM
64 | COc1cc(/C=N/NC(=O)c2ccc(Cl)cc2)ccc1OCC(=O)N1CC(C)OC(C)C1 (stereo not drawn) | -18.3%
65 | CN(C)S(=O)(=O)c1ccc(C(=O)Nc2ccc(OCC(=O)N3CCOCC3)cc2)cc1 | 13.9%
66 | Cc1noc(C)c1S(=O)(=O)Nc1ccccc1N1CCOCC1 | -1.52%
67 | O=C(NCCNC(=O)c1cc(Cl)ccc1Cl)c1ccccn1 | -12.2%
68 | Cn1c(SCC(=O)N2CCOCC2)nnc1-c1ccc(Cl)cc1Cl | 17.8%
69 | Cc1ccc(S(=O)(=O)CCSc2ccc(C(F)(F)F)cn2)cc1 | 0.342%
70 | N#CCN1C(=O)C(=O)N(Cc2cccc(Cl)c2)C1=O | 15.4%
71 | CN1/C(=C\C=C(/C#N)C(=O)Nc2ccccc2F)C(C)(C)c2ccccc21 | -24.4%
72 | Cn1c(=NCC(O)COc2ccccc2)sc2ccccc21 (stereo not drawn) | -42.7%
73 | NC(=O)c1ccc[n+](CC(=O)OCCC23CC4CC(CC(C4)C2)C3)c1.[Cl-] | 11.8%
74 | CCOC(=O)[C@@H]1[C@H]2COc3cc(OC)ccc3[C@@H]2N2C(=O)N(c3cccc(Cl)c3)C(=O)[C@@]12C | 11.3%
75 | O=C(NCCCN1CCN(c2ccc(F)cc2)CC1)C1CCCN(c2ncnc3c2nc2n3CCCCC2)C1 (stereo not drawn) | -66.3%
76 | Cc1cc(C)n2nc(CC(=O)NCc3ccccc3Cl)nc2n1 | 0.407%
77 | Cc1ccc(N(C)C(=O)N2CCN(c3ccccn3)CC2)cc1 | -3.77%
78 | O=C(c1ccc(-n2cncn2)c([N+](=O)[O-])c1)N1CCN(S(=O)(=O)c2cccc(F)c2)CC1 | -71.9%
79 | CCOc1c(Br)cc(/C=C2/SC(=O)N(CC(=O)N3CCCC3)C2=O)cc1OC | 5.25%
80 | COc1ccc(NC(=O)CN(C)C(=O)c2ccc(N3CCOCC3)c([N+](=O)[O-])c2)cc1 | -46.3%
81 | CN(C)CCC[C@@]1(c2ccc(F)cc2)OCc2cc(C#N)ccc21.O=C(O)C(=O)O | -49.9%
82 | CCOc1ccc(N(CC(=O)N2CCN(c3ccc(F)cc3)CC2)S(=O)(=O)c2c(C)noc2C)cc1 | -27.2%
83 | CN(CC1CCCO1)S(=O)(=O)c1ccc(C(=O)NCc2ccccc2)cc1 (stereo not drawn) | 4.32%
84 | O=C(CSc1ccccc1)NNC(=O)c1ccccc1O | 19.1%
